Data: paper PMC4336329 (PLoS ONE, 2015)
Out of some 310,000 compounds screened, about 14,000 (4.5%) showed an effect of 50% or more. Effects have a minus sign here. This is one part of the list.

molecular target: human ether-à-go-go-related gene (hERG) potassium channel (human, UniProt Q12809); experiment: primary screen, population patch clamp on CHO cells stably expressing hERG
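Further: peak tail current of the secondary pulse compared with the same well before compound.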

Chain of human ether-à-go-go-related gene (hERG) potassium channel (Q12809 whole entry, looked up): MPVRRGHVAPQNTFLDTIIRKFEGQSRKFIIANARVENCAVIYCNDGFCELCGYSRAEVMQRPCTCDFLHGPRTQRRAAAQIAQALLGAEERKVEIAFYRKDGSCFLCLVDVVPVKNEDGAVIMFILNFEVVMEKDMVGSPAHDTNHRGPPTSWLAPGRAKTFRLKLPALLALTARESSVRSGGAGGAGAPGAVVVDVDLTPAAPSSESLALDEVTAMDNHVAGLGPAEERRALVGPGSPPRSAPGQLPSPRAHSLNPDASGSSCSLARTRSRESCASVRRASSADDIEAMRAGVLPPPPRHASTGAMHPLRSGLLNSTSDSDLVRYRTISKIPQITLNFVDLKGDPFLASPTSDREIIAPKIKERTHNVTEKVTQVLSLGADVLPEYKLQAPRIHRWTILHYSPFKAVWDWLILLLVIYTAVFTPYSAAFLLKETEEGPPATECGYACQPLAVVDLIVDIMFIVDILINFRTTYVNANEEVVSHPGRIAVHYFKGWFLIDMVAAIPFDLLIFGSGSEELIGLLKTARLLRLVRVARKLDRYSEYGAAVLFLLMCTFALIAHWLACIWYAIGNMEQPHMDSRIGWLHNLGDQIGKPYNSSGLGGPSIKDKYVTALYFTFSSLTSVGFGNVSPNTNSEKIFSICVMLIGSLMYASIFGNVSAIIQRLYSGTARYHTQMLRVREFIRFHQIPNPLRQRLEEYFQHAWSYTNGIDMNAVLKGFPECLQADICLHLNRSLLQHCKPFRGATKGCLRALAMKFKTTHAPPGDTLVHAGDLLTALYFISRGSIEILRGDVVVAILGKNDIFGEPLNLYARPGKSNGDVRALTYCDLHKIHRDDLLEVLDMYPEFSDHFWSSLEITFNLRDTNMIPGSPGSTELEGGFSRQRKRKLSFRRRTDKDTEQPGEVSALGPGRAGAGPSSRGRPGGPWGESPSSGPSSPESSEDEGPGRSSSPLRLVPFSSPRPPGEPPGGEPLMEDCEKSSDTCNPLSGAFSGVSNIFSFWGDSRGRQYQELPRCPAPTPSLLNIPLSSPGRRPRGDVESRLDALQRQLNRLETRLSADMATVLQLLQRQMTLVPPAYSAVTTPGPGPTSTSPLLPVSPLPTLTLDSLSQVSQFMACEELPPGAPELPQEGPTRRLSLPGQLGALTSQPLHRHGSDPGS

Structure (SMILES)	hERG current change (%, negative = inhibition) at 10uM [%]
CC(=O)c1cccc(NC(=O)c2ccccc2-c2ccccc2C(=O)O)c1	16.5
O=C(NC(=S)N(Cc1ccccc1)c1ccccn1)C1CCCCC1	-1.24
O=C(Nc1cccnc1)c1cccc(S(=O)(=O)N2CCOCC2)c1	4.06
O=C(COC(=O)CCC(=O)c1ccc(Cl)cc1)NCC1CCCO1 (centres unmarked)	7.58
Cn1c(C23CC4CC(CC(C4)C2)C3)n[nH]c1=S	15.2
O=c1c(C(c2ccccc2)c2c(O)sc3ccccc3c2=O)c(O)sc2ccccc12	-0.509
Cn1nnc2cc(C(=O)N3CCN(c4ccccc4)CC3)ccc21	-3.95
COc1ccccc1CNC(=O)CC(C)c1ccccc1 (centres unmarked)	4.63
O=C(NNC(=O)C1CC=CCC1C(=O)O)c1cccs1 (centres unmarked)	16.2
Cc1ccc(NC(=O)COC(=O)c2ccc([N+](=O)[O-])o2)cc1S(=O)(=O)N1CCCCC1	-13.3
C=CCOc1ccccc1CN1CCC(n2nccc2NC(=O)c2ccccc2)CC1	-64.4
CCCCn1c(=O)c2c(O)cc(=O)oc2c2ccccc21	-13.6
CC1Sc2ccc(S(=O)(=O)N3CCC(C(=O)N(C)Cc4ccco4)CC3)cc2NC1=O (centres unmarked)	-24.7
O=C(NCC1CCCO1)/C(=C\c1ccco1)NC(=O)c1ccc(Cl)cc1 (centres unmarked)	-23.5
CCCN1CCOC(CC(=O)Nc2ccc([N+](=O)[O-])cc2)C1=O (centres unmarked)	-8.4
COc1ccc(OC)c(-c2nnc(SCC(=O)NC3CCCCC3)o2)c1	-59.8
Oc1c(Br)cc(Br)cc1CN1CCN(Cc2ccccc2)CC1	-3.14
CC(=O)Nc1ccc(NC(=O)CCc2nc3ccccc3c(=O)[nH]2)cc1	14.2
O=C(N/N=C/c1ccc(O)cc1)c1cccc(C(F)(F)F)c1	-2.89

Structure (SMILES)	hERG current change (%, negative = inhibition) at 10uM [%]
CCCOc1ccc(C(C)=O)cc1Cc1c(O)nc(SC)[nH]c1=O	14.7
O=C(CSc1nnnn1-c1ccccc1)CC(=O)Nc1ccc(Cl)cc1	-8.59
CC(=O)c1cc(-c2ccccc2)n(CCC(=O)NC2CCCCCCC2)c1C	-20.9
COc1ccccc1C(=O)OCc1ccc2sc(C)nc2c1	-6.03
O=C(NCCN1CCOCC1)c1ccc(NS(=O)(=O)c2ccccc2)cc1	12.4
Cc1sc(NC(=O)COc2ccccc2)c(C#N)c1C	8.48
O=C(c1cc(COc2ccc(F)cc2Cl)on1)N1CC2C[C@@H]3CC1C[C@H](C2)C3	15.7
CCc1ccc(CN2CCC(n3nccc3NC(=O)c3ccccc3C)CC2)cc1	-76.2
O=C(OCc1nnc(-c2ccccc2)o1)c1ccccc1	21.7
CCCCN(CC)CCNC(=O)CN1C(=O)COc2ccc(S(=O)(=O)N3CCCC3)cc21	-3.34
O=C(CC1Oc2ccccc2NC1=O)NCCCN1CCCC1=O (centres unmarked)	-14
Cc1onc(-c2ccccc2Cl)c1C(=O)N1CCN(c2nc3ccccc3s2)CC1	-20.6
CC(=O)N1CCCc2ccc(NS(=O)(=O)c3ccc(C)c(C)c3)cc21	0.654
COc1ccc(-n2c(=O)c3c4c(sc3n(CC(=O)NC3CCCC3)c2=O)CCCC4)c(OC)c1	-11.1
CCOC(=O)COc1cccc2c(=O)n(CC(N)=O)ccc12	6.7
Cc1cc(=O)oc2ccc(OCC(=O)O)cc12	16.1
CCCCOc1ccccc1C(=O)NCC(=O)O.[Li+]	-0.727
O=C(C1CCCO1)N1CCN(S(=O)(=O)c2ccc(F)cc2)CC1 (centres unmarked)	22.5
O=C1/C(=C/c2c[nH]c3ccccc23)CCC/C1=C\c1c[nH]c2ccccc12	-10

Structure (SMILES)	hERG current change (%, negative = inhibition) at 10uM [%]
COc1ccc(Cl)c(S(=O)(=O)N2CCCC2)c1	-7.55
CCOC(=O)C1=C(C)Nc2ncnn2C1/C=C/c1ccccc1 (centres unmarked)	-2.68
O=C(O)c1cccnc1Sc1ccc(Cl)cc1	23.3
CCOc1ccc(S(=O)(=O)N2CCC(C(=O)N3CCN(c4ccccc4F)CC3)CC2)cc1C	-19
Cc1ccc(NC2=C(C(=O)c3ccccc3)N(C)S(=O)(=O)c3ccccc32)cc1	5.16
COc1ccc(NC(=O)CC(C)CC(=O)NCc2ccccc2)c(OC)c1 (centres unmarked)	-0.642
COc1ccc(N2C(=O)CCC(C(=O)N(C)C3CCCCC3)C2c2ccc(OC)c(OC)c2)cc1 (centres unmarked)	11
COc1cccc(N(C(=O)c2ccco2)C(C(=O)NC2CCCC2)c2ccc(N3CCOCC3)cc2)c1 (centres unmarked)	-10.4
Cc1ccccc1OCCC(=O)OCC(=O)NC1CCCC1	0.814
Cc1ccc2c(c1)N(S(=O)(=O)c1cc(-c3onc(C)c3C)ccc1C)CCO2	14.9
CCCOC(=O)Nc1ccccc1C(N)=O	4.61
COc1cccc(C(C(=O)NC2CCCCC2)N(C(=O)c2cccs2)c2ccc3c(c2)OCO3)c1 (centres unmarked)	0.359
CC1(C)OC(=O)C(=CNC(=O)c2c(F)cccc2F)C(=O)O1	23.2
CCCCNS(=O)(=O)c1ccc2nc(-c3cccnc3)cc(C(=O)NCCOC)c2c1	-12.1
CCOc1cc(C)nc(N2CCN(C3CCCCC3)CC2)n1	-67.5
COc1ccc(-n2c(=S)[nH]c3cc(C(=O)Nc4ccccc4OC)ccc3c2=O)c(OC)c1	21.5
Cc1cc(NC(=O)CSc2nc3ccccc3[nH]2)n(-c2ccccc2)n1	6.21
O=C(NCc1ccccc1)N1CCCC1	10.8
